Assay results from article PMC10361663.
Numbering of substitutions follows the chain as printed. No constants are given. Whether binding was seen depends on the method and setting. In cells and extracts the contact can be indirect. Some entries that bind do so weakly or less than the wild type. For part of these data: Where a sequence is shown, tags or fusion partners need not be part of it.

Sequences of proteins named here, by UniProt entry; tags and fusion partners are left off.
UniProt P52732: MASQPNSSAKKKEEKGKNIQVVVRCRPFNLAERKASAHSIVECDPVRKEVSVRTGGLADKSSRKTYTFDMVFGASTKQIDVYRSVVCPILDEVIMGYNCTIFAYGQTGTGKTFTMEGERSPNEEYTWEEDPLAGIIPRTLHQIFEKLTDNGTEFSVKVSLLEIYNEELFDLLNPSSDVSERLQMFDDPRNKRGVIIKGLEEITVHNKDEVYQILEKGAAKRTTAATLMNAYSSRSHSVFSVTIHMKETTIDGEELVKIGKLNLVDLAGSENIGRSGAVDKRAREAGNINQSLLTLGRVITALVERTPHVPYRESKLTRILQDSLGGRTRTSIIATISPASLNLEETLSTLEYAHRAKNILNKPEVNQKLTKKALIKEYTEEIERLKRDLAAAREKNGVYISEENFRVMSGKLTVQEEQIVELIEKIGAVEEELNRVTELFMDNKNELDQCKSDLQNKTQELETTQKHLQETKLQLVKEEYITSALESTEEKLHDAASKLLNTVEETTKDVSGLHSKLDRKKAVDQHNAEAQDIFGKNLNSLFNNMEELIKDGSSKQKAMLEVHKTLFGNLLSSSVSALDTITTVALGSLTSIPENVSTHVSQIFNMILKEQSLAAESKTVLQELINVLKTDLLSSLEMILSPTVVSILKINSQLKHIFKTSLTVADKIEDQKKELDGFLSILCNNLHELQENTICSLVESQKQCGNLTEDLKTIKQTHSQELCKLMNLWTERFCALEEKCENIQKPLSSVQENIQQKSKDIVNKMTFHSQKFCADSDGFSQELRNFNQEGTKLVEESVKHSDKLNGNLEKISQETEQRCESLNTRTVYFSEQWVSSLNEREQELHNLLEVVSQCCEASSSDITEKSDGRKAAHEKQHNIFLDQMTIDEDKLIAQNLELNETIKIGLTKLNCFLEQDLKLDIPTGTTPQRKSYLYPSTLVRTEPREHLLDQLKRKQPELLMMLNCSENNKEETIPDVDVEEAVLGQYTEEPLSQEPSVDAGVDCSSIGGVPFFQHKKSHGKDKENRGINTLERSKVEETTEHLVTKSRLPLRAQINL
UniProt Q9ULW0: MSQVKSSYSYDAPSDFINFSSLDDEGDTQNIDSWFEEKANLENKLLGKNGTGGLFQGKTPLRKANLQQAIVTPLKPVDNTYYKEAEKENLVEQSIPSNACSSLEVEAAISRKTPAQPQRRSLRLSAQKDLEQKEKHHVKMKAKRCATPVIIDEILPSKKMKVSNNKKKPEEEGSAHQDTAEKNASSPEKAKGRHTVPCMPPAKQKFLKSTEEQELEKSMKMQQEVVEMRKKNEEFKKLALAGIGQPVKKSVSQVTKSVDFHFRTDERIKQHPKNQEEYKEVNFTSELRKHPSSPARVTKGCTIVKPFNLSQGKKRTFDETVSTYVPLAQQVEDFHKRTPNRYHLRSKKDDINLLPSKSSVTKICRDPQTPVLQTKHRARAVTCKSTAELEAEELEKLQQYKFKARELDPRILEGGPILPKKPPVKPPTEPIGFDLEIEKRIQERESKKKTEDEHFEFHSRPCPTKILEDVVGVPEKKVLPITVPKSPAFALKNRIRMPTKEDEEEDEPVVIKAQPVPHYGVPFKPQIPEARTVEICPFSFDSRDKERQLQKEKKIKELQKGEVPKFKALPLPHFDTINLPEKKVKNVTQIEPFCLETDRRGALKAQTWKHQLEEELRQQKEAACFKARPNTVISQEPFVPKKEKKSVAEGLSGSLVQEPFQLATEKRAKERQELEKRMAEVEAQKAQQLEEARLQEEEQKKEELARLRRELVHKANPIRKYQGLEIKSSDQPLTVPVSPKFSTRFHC
UniProt P33176: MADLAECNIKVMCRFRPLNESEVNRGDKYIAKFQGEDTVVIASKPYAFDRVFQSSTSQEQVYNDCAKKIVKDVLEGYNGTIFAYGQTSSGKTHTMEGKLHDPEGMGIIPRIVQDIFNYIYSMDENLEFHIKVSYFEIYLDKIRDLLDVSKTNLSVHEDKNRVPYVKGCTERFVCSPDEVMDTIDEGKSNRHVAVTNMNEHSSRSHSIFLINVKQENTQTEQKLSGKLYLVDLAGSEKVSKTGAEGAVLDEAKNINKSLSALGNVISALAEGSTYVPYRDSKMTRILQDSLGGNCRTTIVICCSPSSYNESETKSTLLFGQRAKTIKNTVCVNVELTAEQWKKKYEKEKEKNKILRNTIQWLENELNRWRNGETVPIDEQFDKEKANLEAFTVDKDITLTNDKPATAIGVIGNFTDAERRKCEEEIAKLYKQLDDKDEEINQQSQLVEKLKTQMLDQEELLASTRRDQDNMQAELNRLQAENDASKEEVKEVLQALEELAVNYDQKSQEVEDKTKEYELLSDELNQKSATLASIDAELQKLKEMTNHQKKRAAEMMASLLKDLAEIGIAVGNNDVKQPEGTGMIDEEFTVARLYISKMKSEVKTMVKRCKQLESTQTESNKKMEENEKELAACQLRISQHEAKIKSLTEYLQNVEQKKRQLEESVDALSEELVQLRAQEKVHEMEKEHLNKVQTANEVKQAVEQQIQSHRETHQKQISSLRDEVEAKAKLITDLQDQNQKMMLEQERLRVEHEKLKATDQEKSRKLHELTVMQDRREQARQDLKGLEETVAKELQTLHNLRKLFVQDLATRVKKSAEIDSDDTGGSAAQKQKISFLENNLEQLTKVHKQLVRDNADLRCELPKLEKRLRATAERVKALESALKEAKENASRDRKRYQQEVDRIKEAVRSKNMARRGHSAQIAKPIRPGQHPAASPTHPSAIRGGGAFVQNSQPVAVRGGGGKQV
UniProt Q14974: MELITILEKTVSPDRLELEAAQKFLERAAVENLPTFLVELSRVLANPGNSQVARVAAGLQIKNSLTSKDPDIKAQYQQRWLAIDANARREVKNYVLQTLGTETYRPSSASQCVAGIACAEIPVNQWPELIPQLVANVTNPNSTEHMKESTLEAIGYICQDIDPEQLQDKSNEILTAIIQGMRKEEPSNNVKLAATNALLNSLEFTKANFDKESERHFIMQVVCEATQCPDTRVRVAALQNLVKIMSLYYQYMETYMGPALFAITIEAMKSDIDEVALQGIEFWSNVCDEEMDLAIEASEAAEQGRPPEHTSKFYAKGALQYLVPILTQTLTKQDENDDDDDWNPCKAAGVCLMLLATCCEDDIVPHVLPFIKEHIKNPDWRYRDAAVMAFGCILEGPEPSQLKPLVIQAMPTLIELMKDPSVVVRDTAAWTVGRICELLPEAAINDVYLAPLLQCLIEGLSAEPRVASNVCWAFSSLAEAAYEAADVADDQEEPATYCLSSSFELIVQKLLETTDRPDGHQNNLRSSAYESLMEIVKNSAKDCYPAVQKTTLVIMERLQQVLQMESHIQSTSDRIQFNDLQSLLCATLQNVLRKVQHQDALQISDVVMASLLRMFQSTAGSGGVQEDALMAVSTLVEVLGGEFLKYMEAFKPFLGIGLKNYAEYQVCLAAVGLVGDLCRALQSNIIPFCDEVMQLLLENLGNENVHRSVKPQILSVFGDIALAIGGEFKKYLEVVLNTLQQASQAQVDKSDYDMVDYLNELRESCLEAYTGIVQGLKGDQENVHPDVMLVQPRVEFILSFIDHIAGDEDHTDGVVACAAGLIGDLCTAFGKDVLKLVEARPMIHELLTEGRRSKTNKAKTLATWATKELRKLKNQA

T1: HURP (Hepatoma Upregulated Protein) (human (endogenous in HeLa Kyoto)) (UniProt Q15398)
T1 sequence: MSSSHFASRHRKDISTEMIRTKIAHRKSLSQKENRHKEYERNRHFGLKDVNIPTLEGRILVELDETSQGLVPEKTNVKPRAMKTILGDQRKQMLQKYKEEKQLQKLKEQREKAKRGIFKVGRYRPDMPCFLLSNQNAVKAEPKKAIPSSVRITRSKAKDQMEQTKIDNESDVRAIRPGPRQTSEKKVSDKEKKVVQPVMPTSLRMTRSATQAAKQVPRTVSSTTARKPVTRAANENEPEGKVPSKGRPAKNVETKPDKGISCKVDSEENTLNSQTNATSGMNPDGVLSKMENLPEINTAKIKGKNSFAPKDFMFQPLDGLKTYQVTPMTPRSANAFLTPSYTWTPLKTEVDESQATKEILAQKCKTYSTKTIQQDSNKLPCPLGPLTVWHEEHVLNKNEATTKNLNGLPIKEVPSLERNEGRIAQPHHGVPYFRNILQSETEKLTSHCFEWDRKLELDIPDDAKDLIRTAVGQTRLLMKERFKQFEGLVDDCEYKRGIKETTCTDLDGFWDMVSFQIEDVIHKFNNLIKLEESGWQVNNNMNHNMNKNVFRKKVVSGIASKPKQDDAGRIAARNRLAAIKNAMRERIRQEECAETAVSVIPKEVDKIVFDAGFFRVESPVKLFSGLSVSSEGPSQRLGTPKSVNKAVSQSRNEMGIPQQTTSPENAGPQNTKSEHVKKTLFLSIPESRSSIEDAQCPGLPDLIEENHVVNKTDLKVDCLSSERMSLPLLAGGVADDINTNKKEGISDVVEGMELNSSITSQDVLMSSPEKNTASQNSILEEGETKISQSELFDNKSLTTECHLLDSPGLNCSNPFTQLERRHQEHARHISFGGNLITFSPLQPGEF

T2: eGFP-HURP S627A (UniProt Q15398)
T2 sequence: T1 sequence with S627A

T3: eGFP-HURP WT (UniProt Q15398)
T3 sequence: T1 sequence

B1: Aurora A (enzyme, UniProt O14965 1-403)
chain: MDRSKENCISGPVKATAPVGGPKRVLVTQQFPCQNPLPVNSGQAQRVLCPSNSSQRIPLQAQKLVSSHKPVQNQKQKQLQATSVPHPVSRPLNNTQKSKQPLPSAPENNPEEELASKQKNEESKKRQWALEDFEIGRPLGKGKFGNVYLAREKQSKFILALKVLFKAQLEKAGVEHQLRREVEIQSHLRHPNILRLYGYFHDATRVYLILEYAPLGTVYRELQKLSKFDEQRTATYITELANALSYCHSKRVIHRDIKPENLLLGSAGELKIADFGWSVHAPSSRRTTLCGTLDYLPPEMIEGRMHDEKVDLWSLGVLCYEFLVGKPPFEANTYQETYKRISRVEFTFPDFVTEGARDLISRLLKHNPSQRPMLREVLEHPWITANSSKPSNCQNKESASKQS

What was measured:
[1] = target: T1, HURP (Hepatoma Upregulated Protein) (human (endogenous in HeLa Kyoto)); assay: co-IP; HeLa Kyoto mitotic cell extracts (Nocodazole arrest, RIPA buffer, 1 mg per IP); IP with anti-HURP antibodies (ab70744, GKAP or DHL5 antisera) on protein A agarose, 4°C; Western blot; controls pre-immune IgG, rabbit IgG or anti-GFP antibody
eGFP-HURP S627A = target: T2, eGFP-HURP S627A; assay: co-IP; mitotic extracts of HeLa Kyoto cells transfected with eGFP, eGFP-HURP WT or eGFP-HURP S627A; IP with anti-GFP mouse monoclonal antibody on protein G agarose, 4°C, RIPA buffer; Western blot
eGFP-HURP WT = target: T3, eGFP-HURP WT; assay: as above

Row | Molecule | binding [1] | binding (eGFP-HURP S627A) | binding (eGFP-HURP WT)
1 | Eg5 (from UniProt P52732 1-1056) | binds weakly | – | –
2 | TPX2 (from UniProt Q9ULW0 1-747) | binds | binds | binds
3 | Kif5B (from UniProt P33176 1-963) | binds | no binding | binds
4 | Importin β (from UniProt Q14974 1-876) | – | no binding | binds
5 | B1 | binds | binds | binds
